Results: PubChem BioAssay AID256 (DTP/NCI, 2004)
Several values for one entry are separate records, joined by “and”; a condition that tells them apart may be missing. Equal entries are not always repeated. This continues a long series; more values of the same kind are listed elsewhere. Inconclusive results and toxic doses are left out. The calls were made as follows: active = survival T/C of 150% or more; inactive = T/C below 125% in these data.

Tested on: CD2F1 mice, L1210 leukemia ip, survival T/C
Test: NCI In Vivo Anticancer Drug Screen. Data for tumor model L1210 Leukemia (intraperitoneal) in CD2F1 (CDF1) mice
Details: endpoint: mean survival time, higher = longer survival
Method: The antitumor activity of compounds was measured in mice bearing transplantable tumors. Survival or tumor size were measured and the results are expressed as the measurement made in the treated group (T) divided by the measurement made in the vehicle treated control group (C). The tumor model used in this assay is L1210 Leukemia (intraperitoneal) in CD2F1 (CDF1) mice

Measured: T/C

Cc1cc(NCCCCCCNc2cc(C)nc3ccc(N)cc23)c2cc(N)ccc2n1
inactive: dose: 0.5 mg/kg/injection, schedule: Q08HX006 (iv), vehicle: saline with Tween-80 = 102 % of control | dose: 1.0 mg/kg/injection, schedule: Q08HX006 (iv), vehicle: saline with Tween-80 = 102 % of control | dose: 1.2 mg/kg/injection, schedule: Q01DX009 (ip), vehicle: saline with Tween-80 = 104 % of control and 107 % of control | dose: 1.9 mg/kg/injection, schedule: Q08HX006 (iv), vehicle: saline with Tween-80 = 103 % of control | dose: 1.94 mg/kg/injection, schedule: Q01DX005 (iv), vehicle: saline with Tween-80 = 102 % of control | dose: 1.94 mg/kg/injection, schedule: Q01DX009 (ip), vehicle: saline with Tween-80 = 104 % of control | dose: 1.94 mg/kg/injection, schedule: Q01DX009 (sc), vehicle: saline with Tween-80 = 101 % of control | dose: 2.25 mg/kg/injection, schedule: Q01DX009 (ip), vehicle: saline 110 % of control | dose: 2.53 mg/kg/injection, schedule: Q01DX009 (ip), vehicle: water 106 % of control | dose: 2.53 mg/kg/injection, schedule: Q01DX009 (sc), vehicle: water 101 % of control | dose: 2.58 mg/kg/injection, schedule: Q01DX009 (ip), vehicle: saline with Tween-80 = 109 % of control | dose: 2.58 mg/kg/injection, schedule: Q01DX009 (sc), vehicle: saline with Tween-80 = 102 % of control | dose: 3.38 mg/kg/injection, schedule: Q01DX009 (ip), vehicle: water 108 % of control | dose: 3.44 mg/kg/injection, schedule: Q01DX005 (iv), vehicle: saline with Tween-80 = 108 % of control | dose: 4.0 mg/kg/injection, schedule: Q01DX009 (ip), vehicle: saline with Tween-80 = 109 % of control | dose: 4.5 mg/kg/injection, schedule: Q01DX009 (ip), vehicle: saline 110 % of control | dose: 4.51 mg/kg/injection, schedule: Q01DX009 (sc), vehicle: water 102 % of control | dose: 4.59 mg/kg/injection, schedule: Q01DX005 (iv), vehicle: saline with Tween-80 = 102 % of control | dose: 4.7 mg/kg/injection, schedule: Q01DX009 (ip), vehicle: saline with Tween-80 = 111 % of control | dose: 6.01 mg/kg/injection, schedule: Q01DX009 (sc), vehicle: water 104 % of control | dose: 7.2 mg/kg/injection, schedule: Q01DX009 (ip), vehicle: saline with Tween-80 = 101 % of control | dose: 8.01 mg/kg/injection, schedule: Q01DX009 (sc), vehicle: water 108 % of control | dose: 8.2 mg/kg/injection, schedule: Q01DX005 (iv), vehicle: saline with Tween-80 = 102 % of control | dose: 10.7 mg/kg/injection, schedule: Q01DX009 (sc), vehicle: water 108 % of control | dose: 10.9 mg/kg/injection, schedule: Q01DX005 (iv), vehicle: saline with Tween-80 = 102 % of control and 112 % of control | dose: 12.8 mg/kg/injection, schedule: Q01DX009 (ip), vehicle: saline with Tween-80 = 106 % of control | dose: 14.2 mg/kg/injection, schedule: Q01DX009 (sc), vehicle: water 110 % of control | dose: 14.5 mg/kg/injection, schedule: Q01DX005 (iv), vehicle: saline with Tween-80 = 109 % of control and 112 % of control | dose: 14.5 mg/kg/injection, schedule: Q01DX009 (sc), vehicle: saline with Tween-80 = 106 % of control | dose: 15.3 mg/kg/injection, schedule: Q08HX006 (iv), vehicle: saline with Tween-80 = 102 % of control | dose: 61.2 mg/kg/injection, schedule: Q08HX009 (iv), vehicle: saline with Tween-80 = 104 % of control | dose: 100.0 mg/kg/injection, schedule: Q04DX003 (ip), vehicle: saline 112 % of control | dose: 300.0 mg/kg/injection, schedule: Q04DX003 (ip), vehicle: saline with Tween-80 = 101 % of control
